B1: PhoQ; a variant is named by its letters at X, in order, P23837 (parent)
chain: MKKLLRLFFPLSLRVRFLLATAAVVLVLSLAYGMVALIGYSVSFDKTTFRLLRGESNLFYTLAKWENNKLHVELPENIDKQSPTMTLIYDENGQLLWAQRDVPWLMKMIQPDWLKSNGFHEIEADVNDTSLLLSGDHSIQQQLQEVREDDDDAEMTHSVAVNVYPATSRMPKLTIVVVDTIPVELKSSYMVWSWFIYVLSANLLLVIPLLWVAAWWSLRPIEALAKEVRELEEHNRELLNPATTRELTSLVRNLNRLLKSERERYDKYRTTLTDLTHSLKTPLXXLQXXLRSLRSEKMSVSDAEPVMLEQISRISQQIGYYLHRASMRGGTLLSRELHPVAPLLDNLTSALNKVYQRKGVNISLDISPEISFVGEQNDFVEVMGNVLDNACKYCLEFVEISARQTDEHLYIVVEDDGPGIPLSKREVIFDRGQRVDTLRPGQGVGLAVAREITEQYEGKIVAGESMLGGARMEVIFGRQHSAPKDE

This is one part of the list.

Variants of B1 are the subject of the test. Put plainly: enrichment ratio after two sorts for PhoP signalling (ratio (wild type AVST 3.29)); higher = more functional. The conditions noted are these: with PhoP (E. coli).
For AFID, the enrichment ratio was at most 0.25.
As to VKNR, the enrichment ratio was at most 0.25.
As to HSVN, the enrichment ratio was at most 0.25.
Under MLTH stands at most 0.25.
Consider KKTG, for which the enrichment ratio is at most 0.25.
With LGYY, the enrichment ratio is at most 0.25.
In the case of WHGW, the enrichment ratio was at most 0.25.
Under DFNT stands at most 0.25; under ITTW, at most 0.25.
Regarding LMHA, the enrichment ratio was at most 0.25.
Regarding GWRW, the enrichment ratio was at most 0.25.
On to FHMA, for which the enrichment ratio was at most 0.25.
Regarding KTHY, the enrichment ratio was at most 0.25.
For WPVS, the enrichment ratio was at most 0.25.
To PLCW belongs at most 0.25.
As for QNEI, the enrichment ratio was at most 0.25.
Under KNKP stands at most 0.25.
In the case of SLQG, the enrichment ratio is at most 0.25.
Consider ALAM, for which the enrichment ratio came to 12.2.
Under VRAM stands at most 0.25; under HTYV, at most 0.25.
For the variant AFAF, the enrichment ratio is at most 0.25.
As to LWKT, the enrichment ratio was at most 0.25.
Turning to HLRW, the enrichment ratio is at most 0.25.
As to DQCV, the enrichment ratio was at most 0.25.
As for PLPH, the enrichment ratio is at most 0.25.
As to TPKE, the enrichment ratio was at most 0.25.
YSQC: the enrichment ratio is at most 0.25.
In the case of FPDQ, the enrichment ratio was at most 0.25.
To NCNG belongs at most 0.25; to VDIK, at most 0.25; to SVWF, at most 0.25.
Take PDNK: the enrichment ratio was at most 0.25.
Regarding ELFL, the enrichment ratio was at most 0.25.
On to HRHA, for which the enrichment ratio was at most 0.25.
Regarding GDPN, the enrichment ratio is at most 0.25.
In the case of WGPV, the enrichment ratio was at most 0.25.
As for YKWC, the enrichment ratio is at most 0.25.
As for RHDN, the enrichment ratio is at most 0.25.
For the variant LTWW, the enrichment ratio was at most 0.25.
GFTR: the enrichment ratio was at most 0.25.
SWKY: the enrichment ratio is at most 0.25.
Under THSF stands 4.98; under DLNN, at most 0.25.
Under LWGS stands at most 0.25; under IMWS, at most 0.25; under PPRG, at most 0.25.
With YYWK, the enrichment ratio is at most 0.25.
As to KMRE, the enrichment ratio is at most 0.25.
With QITP, the enrichment ratio was at most 0.25.
Regarding YTGV, the enrichment ratio is at most 0.25.
For the variant PVES, the enrichment ratio was at most 0.25.
Take YHQI: the enrichment ratio is at most 0.25.
Turning to HKWL, the enrichment ratio is at most 0.25.
For the variant QGSL, the enrichment ratio was found to be 11.2.
TMMD: the enrichment ratio is at most 0.25.
To GPSY belongs at most 0.25.
Turning to FQQQ, the enrichment ratio is at most 0.25.
QSSP: the enrichment ratio is at most 0.25.
Turning to INES, the enrichment ratio was at most 0.25.
With RVGR, the enrichment ratio was at most 0.25.
As for NLNF, the enrichment ratio was at most 0.25.
To TINF belongs 1.79; to GNDT, at most 0.25; to GSPN, at most 0.25.
Take KMGG: the enrichment ratio was at most 0.25.
To ISVV belongs at most 0.25; to LMPI, 0.258; to NRHW, at most 0.25.
As to IHPA, the enrichment ratio is at most 0.25.
As for PGSA, the enrichment ratio is at most 0.25.
To LPMD belongs at most 0.25; to AESK, at most 0.25; to FVRN, at most 0.25.
Under HSFQ stands at most 0.25; under QTYI, 12.9; under MCCY, at most 0.25.
Regarding APMA, the enrichment ratio was at most 0.25.
With WASK, the enrichment ratio is at most 0.25.
Regarding HVYK, the enrichment ratio was at most 0.25.
Turning to PWVE, the enrichment ratio was at most 0.25.
Take NWPM: the enrichment ratio was at most 0.25.
For VTWD, the enrichment ratio is at most 0.25.
Take WFQN: the enrichment ratio was at most 0.25.
Regarding KDSF, the enrichment ratio was at most 0.25.
With THKP, the enrichment ratio is at most 0.25.
Consider QSKW, for which the enrichment ratio was at most 0.25.
Under FSQN stands at most 0.25; under GCPM, at most 0.25; under HDSF, at most 0.25.
Under AELP stands at most 0.25; under NKFP, at most 0.25.
Consider ICNC, for which the enrichment ratio is at most 0.25.
For VEIE, the enrichment ratio was at most 0.25.
Under YWAT stands at most 0.25; under FMWH, 1.52; under AWDM, at most 0.25.
As for YYGH, the enrichment ratio was at most 0.25.
Regarding ELYW, the enrichment ratio is at most 0.25.
To LHMT belongs at most 0.25.
Under FEAS stands at most 0.25; under TRFP, at most 0.25; under ESNM, at most 0.25.
On to RRVA, for which the enrichment ratio was at most 0.25.
Consider AAMC, for which the enrichment ratio is at most 0.25.
To WTQP belongs at most 0.25; to VLTR, at most 0.25.
On to EQSC, for which the enrichment ratio was at most 0.25.
On to DEAQ, for which the enrichment ratio is at most 0.25.
Regarding VWET, the enrichment ratio is at most 0.25.
In the case of ICSE, the enrichment ratio is at most 0.25.
On to PHEN, for which the enrichment ratio is at most 0.25.
For the variant DHHV, the enrichment ratio is at most 0.25.
For the variant RKKC, the enrichment ratio was at most 0.25.
As for LFEY, the enrichment ratio is at most 0.25.
To WFEF belongs at most 0.25.
For the variant DCMK, the enrichment ratio is at most 0.25.
DRFF: the enrichment ratio is at most 0.25.
Take SPSC: the enrichment ratio was at most 0.25.
To NQPH belongs at most 0.25.
As for DEVP, the enrichment ratio is at most 0.25.
For the variant TLQC, the enrichment ratio came out at 3.19.
Regarding MWLF, the enrichment ratio is at most 0.25.
For the variant VYHI, the enrichment ratio is at most 0.25.
For the variant FNSQ, the enrichment ratio was at most 0.25.
Take AVIT: the enrichment ratio is 1.3.
Regarding PAVI, the enrichment ratio is at most 0.25.
To QVDA belongs at most 0.25; to VEPW, at most 0.25; to PGFE, at most 0.25.
Take PKSE: the enrichment ratio was at most 0.25.
ALIA: the enrichment ratio was 0.266.
In the case of FAAA, the enrichment ratio is at most 0.25.
IHTA: the enrichment ratio was at most 0.25.
For SNQT, the enrichment ratio turned out to be 0.383.
On to NDDC, for which the enrichment ratio is at most 0.25.
For the variant SIHS, the enrichment ratio was determined as 1.56.
Consider SFPR, for which the enrichment ratio is at most 0.25.
Consider MNWH, for which the enrichment ratio was found to be 0.253.
For TNWT, the enrichment ratio was at most 0.25.
As for RNYQ, the enrichment ratio was at most 0.25.
For YWRR, the enrichment ratio is at most 0.25.
Take THLI: the enrichment ratio stood at 10.7.
Consider CSNS, for which the enrichment ratio is at most 0.25.
For DNKC, the enrichment ratio was at most 0.25.
Consider DNVD, for which the enrichment ratio is at most 0.25.
Consider KQCR, for which the enrichment ratio is at most 0.25.
In the case of SYRD, the enrichment ratio is at most 0.25.
In the case of SRWF, the enrichment ratio is at most 0.25.
To TLHH belongs at most 0.25.
For GHYF, the enrichment ratio was at most 0.25.
On to NTWF, for which the enrichment ratio was at most 0.25.
Regarding ENIW, the enrichment ratio is at most 0.25.
Under QQMV stands at most 0.25; under DSGF, at most 0.25.
For NYAM, the enrichment ratio is at most 0.25.
To PTPE belongs at most 0.25; to VGIQ, at most 0.25; to FHGL, at most 0.25.
As to RMYL, the enrichment ratio is at most 0.25.
FVWV: the enrichment ratio is at most 0.25.
On to HQIQ, for which the enrichment ratio is at most 0.25.
For NSKM, the enrichment ratio is at most 0.25.
Consider PTSY, for which the enrichment ratio was at most 0.25.
On to MSPN, for which the enrichment ratio was at most 0.25.
On to VMWT, for which the enrichment ratio was at most 0.25.
With KSYN, the enrichment ratio was at most 0.25.
Consider LVEW, for which the enrichment ratio was at most 0.25.
For VILW, the enrichment ratio is at most 0.25.
Take KMYC: the enrichment ratio is at most 0.25.
On to SVQL, for which the enrichment ratio is 4.26.
For SEVP, the enrichment ratio was at most 0.25.
On to YLRW, for which the enrichment ratio is at most 0.25.
With IPST, the enrichment ratio is at most 0.25.
To TPVP belongs at most 0.25; to NKRL, at most 0.25.
In the case of LWNY, the enrichment ratio is at most 0.25.
To SGLK belongs 1.86; to KCDS, at most 0.25.
For TATW, the enrichment ratio was at most 0.25.
RVNH: the enrichment ratio was at most 0.25.
Under GWGG stands at most 0.25; under MENF, at most 0.25.
As for NPPI, the enrichment ratio was at most 0.25.
Take FRVC: the enrichment ratio was at most 0.25.
Consider HCFT, for which the enrichment ratio was at most 0.25.
To DSWR belongs at most 0.25; to WIIR, at most 0.25; to MVLG, 4.6.
Take EFFY: the enrichment ratio was at most 0.25.
For HEVG, the enrichment ratio was at most 0.25.
With YSAN, the enrichment ratio came out at 0.914.
Regarding ICHM, the enrichment ratio was at most 0.25.
To KCKT belongs at most 0.25; to KFQS, at most 0.25.

These data come from a collection of fitness landscapes (doi:10.1126/science.1257360).
